B1: TEV protease; numbered along this chain (parent)
chain: MGESLFKGPRDYNPISSSICHLTNESDGHTTSLYGIGFGPFIITNKHLFRRNNGTLVVQSLHGVFKVKDTTTLQQHLVDGRDMIIIRMPKDFPPFPQKLKFREPQREERICLVTTNFQTKSMSSMVSDTSCTFPSGDGIFWKHWIQTKDGQCGSPLVSTRDGFIVGIHSASNFTNTNNYFTSVPKNFMELLTNQEAQQWVSGWRLNADSVLWGGHKVFMVKPEEPFQPVKEATQL

In the assay the parent is B1. Nature of the assay: raw area under fraction-flipped curve 0-4 h after induction (AUC4h, not background-subtracted), DNA-recorder readout of cleavage of the substrate (dimensionless); higher = more cleavage of the substrate by the protease variant. The note with it: temperature: 34 °C; time window: 0-4 h after rhamnose induction. On the procedure: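 In vivo DNA recorder in E. coli TOP10(DE3) ΔrhaA at 34 °C. Each TEVp single-site mutant (parent TEVp 0) is paired with a single-site variant of the 7-mer TEVs (canonical ENLYFQ|S). The substrate sits between flexible linkers in a Bxb1-sfGFP-TEVs-SsrA fusion, so cleavage stabilises Bxb1 and speeds flipping of a recombination array, read by NGS. The value is the raw area under the fraction-flipped curve over 0-4 h after rhamnose induction (AUC4h), with ≥20 reads per time point. It is not background-subtracted; inactive controls average about 0.047.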

This is one part of the list. The full chains were built here from the parent and the listed change. Inactive controls read about 0.05.
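Further: Bxb1 expression induced with 0.2% (w/v) L-rhamnose at OD600 near 0.5, cultures sampled hourly, flipped fraction per protease–substrate barcode pair counted by paired-end Illumina sequencing.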

For the variant MGESLFKGPRDYNPISSSICHLTNESDGHTTSLYGIGFGPFIITNKHLFRRNNGTLVVQSLHGVFKVKDTTTLQQHLVDGRDMIIIRMPKDFPPFPQKLKFREPQRECRICLVTTNFQTKSMSSMVSDTSCTFPSGDGIFWKHWIQTKDGQCGSPLVSTRDGFIVGIHSASNFTNTNNYFTSVPKNFMELLTNQEAQQWVSGWRLNADSVLWGGHKVFMVKPEEPFQPVKEATQL [E108C], the “area with substrate ENLYAQS” value came out at 0.0754, the “area with substrate ENLYDQS” value stood at 0.0671, the “area with substrate ENLYHQS” value was found to be 0.059 and the “area with substrate ENLYIQS” value is 0.0818. The “area with substrate ENLYKQS” value is 0.0545, the “area with substrate ENLYMQS” value was 0.0677, the “area with substrate ENLYNQS” value worked out at 0.0555 and the “area with substrate ENLYPQS” value was 0.0662. Moreover, the “area with substrate ENLYRQS” value was 0.0677, the “area with substrate ENLYSQS” value is 0.0525, the “area with substrate ENLYTQS” value worked out at 0.064 and the “area with substrate ENLYVQS” value turned out to be 0.0805. The “area with substrate ENLYWQS” value was 0.0584 and the “area with substrate ENLYYQS” value turned out to be 0.0554.

On to MGESLFKGPRDYNPISSSICHLTNESDGHTTSLYGIGFGPFIITNKHLFRRNNGTLVVQSLHGVFKVKDTTTLQQHLVDGRDMIIIRMPKDFPPFPQKLKFREPQREHRICLVTTNFQTKSMSSMVSDTSCTFPSGDGIFWKHWIQTKDGQCGSPLVSTRDGFIVGIHSASNFTNTNNYFTSVPKNFMELLTNQEAQQWVSGWRLNADSVLWGGHKVFMVKPEEPFQPVKEATQL [E108H], for which the “area with substrate ENLYAQS” value is 0.0733, the “area with substrate ENLYDQS” value came out at 0.053, the “area with substrate ENLYEQS” value turned out to be 0.0728 and the “area with substrate ENLYHQS” value was 0.0572. The “area with substrate ENLYIQS” value was determined as 0.0688, the “area with substrate ENLYKQS” value is 0.0509, the “area with substrate ENLYLQS” value was determined as 0.0583 and the “area with substrate ENLYMQS” value is 0.0633. Further, the “area with substrate ENLYNQS” value amounted to 0.0582, the “area with substrate ENLYPQS” value is 0.0528, the “area with substrate ENLYQQS” value was 0.0522 and the “area with substrate ENLYRQS” value was determined as 0.0321. Further, the “area with substrate ENLYSQS” value was determined as 0.0532, the “area with substrate ENLYTQS” value stood at 0.0555 and the “area with substrate ENLYVQS” value came to 0.084.

On to MGESLFKGPRDYNPISSSICHLTNESDGHTTSLYGIGFGPFIITNKHLFRRNNGTLVVQSLHGVFKVKDTTTLQQHLVDGRDMIIIRMPKDFHPFPQKLKFREPQREERICLVTTNFQTKSMSSMVSDTSCTFPSGDGIFWKHWIQTKDGQCGSPLVSTRDGFIVGIHSASNFTNTNNYFTSVPKNFMELLTNQEAQQWVSGWRLNADSVLWGGHKVFMVKPEEPFQPVKEATQL [P93H], for which the “area with substrate ENLYAQS” value was found to be 0.0645, the “area with substrate ENLYDQS” value is 0.0586, the “area with substrate ENLYEQS” value is 0.063 and the “area with substrate ENLYGQS” value is 0.0581. In addition, the “area with substrate ENLYHQS” value stood at 0.0633, the “area with substrate ENLYIQS” value was 0.104, the “area with substrate ENLYKQS” value came to 0.0567 and the “area with substrate ENLYMQS” value was found to be 0.0801. The “area with substrate ENLYNQS” value is 0.0697, the “area with substrate ENLYPQS” value was 0.0725, the “area with substrate ENLYQQS” value was 0.0809 and the “area with substrate ENLYSQS” value came to 0.0733. In addition, the “area with substrate ENLYWQS” value came out at 0.0708 and the “area with substrate ENLYYQS” value was found to be 0.0615.

As for MGESLFKGPRDYNPISSSICHLTNESDGHTTSLYGIGFGPFIITNKHLFRRNNGTLVVQSLHGVFKVKDTTTLQQHLVDGRDMIIIRMPKDFPPFPQKLKFREPHREERICLVTTNFQTKSMSSMVSDTSCTFPSGDGIFWKHWIQTKDGQCGSPLVSTRDGFIVGIHSASNFTNTNNYFTSVPKNFMELLTNQEAQQWVSGWRLNADSVLWGGHKVFMVKPEEPFQPVKEATQL [Q105H], the “area with substrate ENLYAQS” value was determined as 0.0836, the “area with substrate ENLYEQS” value turned out to be 0.0662, the “area with substrate ENLYHQS” value was found to be 0.0807 and the “area with substrate ENLYIQS” value worked out at 0.179. Moreover, the “area with substrate ENLYNQS” value amounted to 0.0551, the “area with substrate ENLYPQS” value stood at 0.0706, the “area with substrate ENLYSQS” value came to 0.0687 and the “area with substrate ENLYTQS” value came to 0.0916. The “area with substrate ENLYWQS” value is 0.0614 and the “area with substrate ENLYYQS” value was determined as 0.0972.

As to MGESLFKGPRDYNPISSSICHLTNESDGHTTSLYGIGFGPFIITNKHLFRRNNGTLVVQSLHGVFKVKDTTTLQQHLVDGRDMIIIRMPKDFPMFPQKLKFREPQREERICLVTTNFQTKSMSSMVSDTSCTFPSGDGIFWKHWIQTKDGQCGSPLVSTRDGFIVGIHSASNFTNTNNYFTSVPKNFMELLTNQEAQQWVSGWRLNADSVLWGGHKVFMVKPEEPFQPVKEATQL [P94M], the “area with substrate ENLYAQS” value is 0.0595, the “area with substrate ENLYDQS” value came to 0.0565, the “area with substrate ENLYEQS” value was 0.0694 and the “area with substrate ENLYGQS” value stood at 0.0664. Besides, the “area with substrate ENLYHQS” value was found to be 0.0818, the “area with substrate ENLYIQS” value was 0.101, the “area with substrate ENLYMQS” value was determined as 0.0562 and the “area with substrate ENLYNQS” value turned out to be 0.0522. In addition, the “area with substrate ENLYPQS” value worked out at 0.101, the “area with substrate ENLYQQS” value is 0.0614, the “area with substrate ENLYSQS” value stood at 0.0677 and the “area with substrate ENLYTQS” value worked out at 0.0772. Moreover, the “area with substrate ENLYWQS” value was 0.0767.

Regarding MGESLFKGPRDYNPISSSICHLTNESDGHTTSLYGIGFGPFIITNKHLFRRNNGTLVVQSLHGVFKVKDTTTLQQHLVDGRDMIIIRMPKDFPPTPQKLKFREPQREERICLVTTNFQTKSMSSMVSDTSCTFPSGDGIFWKHWIQTKDGQCGSPLVSTRDGFIVGIHSASNFTNTNNYFTSVPKNFMELLTNQEAQQWVSGWRLNADSVLWGGHKVFMVKPEEPFQPVKEATQL [F95T], the “area with substrate ENLYAQS” value was 0.0536, the “area with substrate ENLYCQS” value came out at 0.0601, the “area with substrate ENLYGQS” value was 0.053 and the “area with substrate ENLYKQS” value came out at 0.0474. Besides, the “area with substrate ENLYMQS” value stood at 0.057, the “area with substrate ENLYRQS” value was 0.0373, the “area with substrate ENLYSQS” value was determined as 0.0428 and the “area with substrate ENLYVQS” value came to 0.0997.

For MGESLFKGPRDYNPISSSICHLTNESDGHTTSLYGIGFGPFIITNKHLFRRNNGTLVVQSLHGVFKVKDTTTLQQHLVDGRDMIIIRMPKDPPPFPQKLKFREPQREERICLVTTNFQTKSMSSMVSDTSCTFPSGDGIFWKHWIQTKDGQCGSPLVSTRDGFIVGIHSASNFTNTNNYFTSVPKNFMELLTNQEAQQWVSGWRLNADSVLWGGHKVFMVKPEEPFQPVKEATQL [F92P], the “area with substrate ENLYAQS” value was 0.053, the “area with substrate ENLYCQS” value is 0.0455, the “area with substrate ENLYDQS” value was determined as 0.0544 and the “area with substrate ENLYEQS” value came out at 0.0558. Also, the “area with substrate ENLYGQS” value was 0.0588, the “area with substrate ENLYHQS” value amounted to 0.0608, the “area with substrate ENLYIQS” value turned out to be 0.0803 and the “area with substrate ENLYKQS” value came out at 0.0597. Besides, the “area with substrate ENLYLQS” value is 0.0543, the “area with substrate ENLYMQS” value came to 0.0655, the “area with substrate ENLYNQS” value came out at 0.156 and the “area with substrate ENLYPQS” value came to 0.0532. In addition, the “area with substrate ENLYQQS” value was 0.0734, the “area with substrate ENLYSQS” value turned out to be 0.0614 and the “area with substrate ENLYWQS” value came out at 0.0519.

With MGESLFKGPRDYNPISSSICHLTNESDGHTTSLYGIGFGPFIITNKHLFRRNNGTLVVQSLHGVFKVKDTTTLQQHLVDGRDMIIIRMPKDFPPFPQKLKFREPQREERICPVTTNFQTKSMSSMVSDTSCTFPSGDGIFWKHWIQTKDGQCGSPLVSTRDGFIVGIHSASNFTNTNNYFTSVPKNFMELLTNQEAQQWVSGWRLNADSVLWGGHKVFMVKPEEPFQPVKEATQL [L112P], the “area with substrate ENLYAQS” value worked out at 0.0421, the “area with substrate ENLYCQS” value was 0.0512, the “area with substrate ENLYEQS” value was 0.0587 and the “area with substrate ENLYGQS” value was determined as 0.0556. Further, the “area with substrate ENLYHQS” value was determined as 0.0611, the “area with substrate ENLYIQS” value came to 0.05, the “area with substrate ENLYKQS” value was 0.0472 and the “area with substrate ENLYLQS” value is 0.0513. In addition, the “area with substrate ENLYMQS” value amounted to 0.053, the “area with substrate ENLYNQS” value came to 0.057, the “area with substrate ENLYPQS” value was determined as 0.0645 and the “area with substrate ENLYQQS” value amounted to 0.048. Moreover, the “area with substrate ENLYRQS” value amounted to 0.0549, the “area with substrate ENLYTQS” value worked out at 0.0584 and the “area with substrate ENLYWQS” value amounted to 0.0604.

On to MGESLFKGPRDYNPISSSICHLTNESDGHTTSLYGIGFGPFIITNKHLFRRNNGTLVVQSLHGVFKVKDTTTLQQHLVDGRDMIIIRMPKDFPPFPQKLKFRFPQREERICLVTTNFQTKSMSSMVSDTSCTFPSGDGIFWKHWIQTKDGQCGSPLVSTRDGFIVGIHSASNFTNTNNYFTSVPKNFMELLTNQEAQQWVSGWRLNADSVLWGGHKVFMVKPEEPFQPVKEATQL [E103F], for which the “area with substrate ENLYAQS” value was found to be 0.0746, the “area with substrate ENLYDQS” value turned out to be 0.077, the “area with substrate ENLYEQS” value turned out to be 0.0677 and the “area with substrate ENLYHQS” value came to 0.0744. Besides, the “area with substrate ENLYIQS” value is 0.126, the “area with substrate ENLYKQS” value came to 0.051, the “area with substrate ENLYLQS” value worked out at 0.089 and the “area with substrate ENLYNQS” value worked out at 0.0795. For the same variant, the “area with substrate ENLYPQS” value stood at 0.0827, the “area with substrate ENLYRQS” value is 0.073 and the “area with substrate ENLYWQS” value is 0.0893.

These data come from the supplement of paper PMC12217912.
